pKi: −log10 of the molar value. For some assays here: At least one peptide structure holds a part that was inferred or is arguable (an end, a ring closure or a residue). For some assays here: For at least one compound, name, drawing or mass did not settle the structure. Starred links: 1 amine or outer side, 2 acyl side, 3 side chain; linkers in the order of their positions; H or OH if unused. Non-standard residues stand in square brackets, D forms with d. Residues, ends and D or L forms follow the SMILES beside them. X9 = O=C1N(CCCCC(=O)[*:2])CN(c2ccccc2)C12CCN([*:1])CC2; Oic = O=C(O)[C@@H]1C[C@@H]2CCCC[C@@H]2N1; X1 = O=C(C/C=C/c1ccccc1CN[*:1])[*:2]; dTic = O=C(O)[C@H]1Cc2ccccc2CN1; 12Ado = NCCCCCCCCCCCC(=O)O
Key:
[1] = tested on: bradykinin-induced contraction of guinea pig ileum longitudinal muscle; experiment: Guinea pig ileum contraction assay; assay type: cell-based; conditions: Schild analysis against bradykinin
Description: Guinea pig intestine was removed and placed in a Petri dish containing Tyrodes solution and cut into 3-4 cm segments.
After equilibration of the tissues, appropriate volumes of bradykinin solutions were cumulatively added to the 10 ml tissue baths to increase the concentration of bradykinin in the bath step-by-step without washing out after each single dose. Higher concentrations were added only after the preceding contraction had reached a steady value. […] Antagonism of bradykinin responses to the presence of antagonist were determined by repeating the cumulative addition procedure for bradykinin after the tissue has been exposed to the antagonist for 5 minutes. Three or four different concentrations of antagonist were studied sequentially in the same preparations. Responses were expressed as a percentage of the maximum […] elicited by bradykinin in the absence of antagonist. pA2 values were calculated by Schild analysis.

human B2 receptor = biological target: T1, human B2 receptor (Homo sapiens, UniProt P30411); experiment: Whole cell binding assay, 3H-bradykinin; conditions: Table 2, whole cells, read-out: Radioligand Binding, Ki Whole Cell 3HBK
T1 construct: The HindIII/XbaI fragment of one full-length clone, 126A, was inserted into pcDNAI neo vector; expressed in transfected cells
T1 sequence (P30411 1-391): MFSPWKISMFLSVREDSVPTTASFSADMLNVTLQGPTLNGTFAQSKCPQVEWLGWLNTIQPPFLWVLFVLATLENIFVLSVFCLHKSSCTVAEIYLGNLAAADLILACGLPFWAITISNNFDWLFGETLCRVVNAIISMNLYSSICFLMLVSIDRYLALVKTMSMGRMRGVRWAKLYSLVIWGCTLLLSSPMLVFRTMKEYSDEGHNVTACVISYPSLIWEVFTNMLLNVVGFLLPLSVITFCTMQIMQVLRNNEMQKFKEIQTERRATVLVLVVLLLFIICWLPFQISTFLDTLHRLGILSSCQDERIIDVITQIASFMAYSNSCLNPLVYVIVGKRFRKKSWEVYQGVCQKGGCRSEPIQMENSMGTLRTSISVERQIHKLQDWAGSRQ
Description: Binding to confluent monolayers of transfected cells expressing the human B2 receptor (7,000 fmol/receptor/mg) grown in 24-well plates was measured by incubating cells in 1 ml cell binding buffer (PBS/Ca/Mg, 1% BSA, 0.14 mg/ml bacitracin) containing 10^-10 M ^3 H-bradykinin and various concentrations of unlabeled analogs for 4 to 10 hours at 4° C. Cells were washed three times with cell binding buffer and lysed in 0.1N NaOH. An aliquot of the lysate was counted to measure radioactivity bound.

[2] = biological target: T2, human bradykinin B2 receptor (Homo sapiens, UniProt P30411); experiment: Radioligand binding, H2O.2 cell membranes, 3H-bradykinin; conditions: Table 2, read-out: Radioligand Binding, Ki Human 3HBK
T2 construct: The HindIII/XbaI fragment of one full-length clone, 126A, was inserted into pcDNAI neo vector; expressed in transfected cells
T2 sequence (P30411 1-391): T1 sequence (P30411 1-391)
Description: (§1) A human bradykinin B2 receptor was expressed in CHO/K cells. Briefly, approximately 2×10^6 plaques from a human uterus λgt10 cDNA library (Clontech Laboratories; Palo Alto, Calif.) were screened using a PCR fragment containing the coding region of the rat B2 receptor. This probe was generated by random-primed synthesis in the presence of α[^32 P]dATP. Duplicate filters were hybridized overnight at 42° C. in 1M NaCl, 50 mM Tris pH 7.5, 5× Denhardt's, 200 μg/ml salmon sperm DNA, 1% SDS, and 20% formamide. The filters were washed at 65° C. in 1× SSC and 1% SDS. Coincident positively hybridizing plaques were purified and rescreened with the same probe and stringency conditions. EcoRI fragments of positive clones were inserted into Bluescript/KS II+vector (Stratagene; La Jolla, Calif.) for sequence determination.
(§2) The nucleotide sequence of the cloned human B2 receptors was determined using double-stranded DNA and the dideoxy chain termination method. Commercially available T3 and T7 oligonucleotides (USB; Cleveland, Ohio) and synthetic 21-mer oligonucleotides (DNA/RNA Synthesizer; applied Biosystems Inc.; Palo Alto, Calif.) from both the known rat sequence and the determined human sequence were used to identify the nucleotide sequence from the 5' untranslated end to the BglII site in the 3' untranslated end of the clone.
(§3) CHO/K cells were plated in 2 ml of growth medium (Ham's F12 with 10% FBS) per 6 well plate and incubated at 37° C., 5% CO2 until they were 60% confluent. For each well, 4, 12, and 16 μg of DNA was diluted in 100 μl Opti-MEM I reduced serum medium (Gibco/BRL; Gaithersburg, Md.). 12 μl of TransfectASE reagent (Gibco/BRL) was diluted in a separate aliquot of 100 μl Opti-MEM I. The DNA and TransfecASE solutions were combined, mixed gently, and incubated at 25° C. for 15 minutes. This solution was then diluted to 1 ml with Opti-MEM I. Each well was washed twice with Opti-MEM I and 1 ml of the DNA/TransfectAse complex was added to each well. After a 5 hour incubation at 37° C. and 5% CO2, 1 ml of Ham's F12 with 20% FBS was added to each well and cells were incubated overnight. Media was replaced with growth medium and incubated for additional 24 hours.
(§4) This assay measures the ability of a bradykinin antagonist compound to compete for binding to the human B2 receptor with tritiated bradykinin or tritiated NPC17731, a bradykinin analog which is known to bind the B2 receptor and act as a bradykinin antagonist.
(§5) H2O.2 cells were grown to confluency in Ham's F12 media containing 10% FBS and 500 μg/ml Geneticin. Growth media was aspirated and the monolayer washed once with Dulbecco's PBS without Ca^++ and Mg^++. Cells were scraped in Dulbecco's PBS and centrifuged at 2,000×g for 10 minutes. Pellets were resuspended in 25 mM TES, 1 mM 1,10-phenanthroline pH 6.8 buffer and homogenized using a Ploytron at setting 5 for 10 seconds. An aliquot was taken for a protein determination using a BioRad protein assay kit. Membranes were centrifuged at 48,000×g for 10 minutes at 4° C. Pellets were resuspended in the TES buffer with 0.1% BSA and 0.014% bacitracin. 0.5 ml aliquots were frozen in liquid N2 and stored at -80° C. for up to 2 weeks.
Membranes from H2O.2 cells previously prepared were thawed at 37° C. and diluted in 25 mM TES, […] 1,10-phenanthroline pH 6.8 containing BSA and bactiracin. […] Non-specific binding was determined with 1 μM bradykinin. […] Radioactivity was counted with a Beckman scintillation counter.

[3] = biological target: T2, human bradykinin B2 receptor; experiment: Radioligand binding, H2O.2 cell membranes, 3H-NPC17731; conditions: Table 1, read-out: Radioligand Binding Human 3H17731
Description: as §1, §2, §3, §4, §5
Membranes from H2O.2 cells previously prepared were thawed at 37° C. and diluted in 25 mM TES, […] 1,10-phenanthroline pH 6.8 containing BSA and bactiracin. […] Non-specific binding was determined with 1 μM bradykinin. The tubes were incubated 90 minutes at 25° C. and the assay was terminated by rapid vacuum filtration onto Whatman GF/B filters presoaked with 0.2% PEI for 3 hours followed by 2×3 ml aliquots of ice-cold 50 mM Tris, pH 7.4. Radioactivity was counted with a Beckman scintillation counter.

Row | SMILES | pKi [2] | pKi [3] | also measured
1 | N=C(N)NCCC[C@@H](N)C(=O)N[C@@H](CCCNC(=N)N)C(=O)NCCCCCCCCCCCC(=O)N[C@@H](CO)C(=O)N1Cc2ccccc2C[C@@H]1C(=O)N1[C@H](C(=O)N[C@@H](CCCNC(=N)N)C(=O)O)C[C@@H]2CCCC[C@@H]21 (H-[dR]R[12Ado]S[dTic][Oic]R-OH) |  |  | Guinea Pig Ileum Contraction pA2 [1]: 5.6
2 | N=C(N)NCCC[C@@H](N)C(=O)N[C@@H](CCCNC(=N)N)C(=O)NCc1ccccc1/C=C/CC(=O)N[C@@H](CO)C(=O)N1Cc2ccccc2C[C@@H]1C(=O)N1[C@H](C(=O)N[C@@H](CCCNC(=N)N)C(=O)O)C[C@@H]2CCCC[C@@H]21 (H-[dR]R[X1]S[dTic][Oic]R-OH) |  |  | Guinea Pig Ileum Contraction pA2 [1]: 6.10
3 | N=C(N)NCCC[C@@H](N)C(=O)N[C@@H](CCCNC(=N)N)C(=O)Nc1ccc(N(CC(=O)NCc2ccccc2/C=C/C=C/C(=O)N[C@@H](CCCNC(=N)N)C(=O)O)C(=O)c2ccccc2)cc1 [Compound 1] | 7.44 |  | pKi (human B2 receptor): 5.26
4 | N=C(N)NCCC[C@@H](N)C(=O)N[C@@H](CCCNC(=N)N)C(=O)N1CCC2(CC1)C(=O)N(CC(=O)N[C@@H](CO)C(=O)N1CCc3c(n(CC(=O)N[C@@H](CCCNC(=N)N)C(=O)O)c4ccccc34)C1)CN2c1ccccc1 [Compound 5] | 6.33 |  | 
5 | N=C(N)NCCC[C@@H](N)C(=O)N[C@@H](CCCNC(=N)N)C(=O)Nc1ccc(N(CC(=O)NCc2ccccc2/C=C/C=C/C(=O)NC(Cc2ccc(C(=N)N)cc2)C(N)=O)C(=O)c2ccccc2)cc1 (some centres unmarked) [Compound 6] | 7.08 |  | pKi (human B2 receptor): 6.22
6 | COc1ccc(N2CN(CC(=O)N3CCc4c(c5ccccc5n4CCC(=O)N[C@@H](CCCNC(=N)N)C(=O)O)C3)C(=O)C23CCN(C(=O)[C@H](CCCNC(=N)N)NC(=O)[C@H](N)CCCNC(=N)N)CC3)cc1 [Compound 13] | 6.22 |  | 
7 | Cc1cc(C)nc(NCCC[C@H](NC(=O)/C=C/C=C/c2ccccc2CNC(=O)CN(C(=O)c2ccccc2)c2ccc(NC(=O)[C@H](CCCNC(=N)N)NC(=O)[C@H](N)CCCNC(=N)N)cc2)C(N)=O)n1 [Compound 19] | 7.71 |  | 
8 | Cc1ccc(N2CN(CC(=O)N[C@@H](CO)C(=O)N3Cc4ccccc4C[C@@H]3C(=O)N3[C@H](C(=O)N[C@@H](CCCNC(=N)N)C(=O)O)C[C@@H]4CCCC[C@@H]43)C(=O)C23CCN(C(=O)[C@H](CCCNC(=N)N)NC(=O)[C@H](N)CCCNC(=N)N)CC3)cc1 [HDArgArgX[4-CH3 Ph]CH2COSerDTicOicArgOH] |  | 8.20 | 
9 | N=C(N)NCCC[C@@H](N)C(=O)N[C@@H](CCCNC(=N)N)C(=O)N1CCC2(CC1)C(=O)N(CCCCC(=O)N1Cc3ccccc3C[C@@H]1C(=O)N1[C@H](C(=O)N[C@@H](CCCNC(=N)N)C(=O)O)C[C@@H]3CCCC[C@@H]31)CN2c1ccccc1 [HDArgArgX[Ph](CH2)4 CODTicOicArgOH] (H-[dR]R[X9][dTic][Oic]R-OH) |  | 6.95 | 
10 | C[C@H](NC(=O)CN1CN(c2ccccc2)C2(CCN(C(=O)[C@H](CCCNC(=N)N)NC(=O)[C@H](N)CCCNC(=N)N)CC2)C1=O)C(=O)N1Cc2ccccc2C[C@@H]1C(=O)N1[C@H](C(=O)N[C@@H](CCCNC(=N)N)C(=O)O)C[C@@H]2CCCC[C@@H]21 [HDArgArgX[Ph]CH2 COAlaDTicOicArgOH] |  | 7.73 | 
11 | N=C(N)NCCC[C@@H](N)C(=O)N[C@@H](CCCNC(=N)N)C(=O)N1CCC2(CC1)C(=O)N(CC(=O)NCC(=O)N1Cc3ccccc3C[C@@H]1C(=O)N1[C@H](C(=O)N[C@@H](CCCNC(=N)N)C(=O)O)C[C@@H]3CCCC[C@@H]31)CN2c1ccccc1 [HDArgArgX[Ph]CH2 COGlyDTicOicArgOH] |  | 7.18 | 
12 | N=C(N)NCCC[C@@H](N)C(=O)N[C@@H](CCCNC(=N)N)C(=O)N1CCC2(CC1)C(=O)N(CC(=O)N(CC(=O)N1Cc3ccccc3C[C@@H]1C(=O)N1[C@H](C(=O)N[C@@H](CCCNC(=N)N)C(=O)O)C[C@@H]3CCCC[C@@H]31)Cc1ccccc1)CN2c1ccccc1 [HDArgArgX[Ph]CH2 CONBnGlyDTicOicArgOH] |  | 7.27 | 
13 | N=C(N)NCCC[C@@H](N)C(=O)N[C@@H](CCCNC(=N)N)C(=O)N1CCC2(CC1)C(=O)N(CC(=O)N(CC(=O)N[C@@H](CO)C(=O)N1Cc3ccccc3C[C@@H]1C(=O)N1[C@H](C(=O)N[C@@H](CCCNC(=N)N)C(=O)O)C[C@@H]3CCCC[C@@H]31)Cc1ccccc1)CN2c1ccccc1 [HDArgArgX[Ph]CH2 CONBnGlySerDTicOicArgOH] |  | 7.51 | 
14 | N=C(N)NCCC[C@@H](N)C(=O)N[C@@H](CCCNC(=N)N)C(=O)N1CCC2(CC1)C(=O)N(CC(=O)N[C@@H](CO)C(=O)N1Cc3ccccc3C[C@@H]1C(=O)N1[C@H](C(=O)N[C@@H](CCCNC(=N)N)C(=O)O)C[C@@H]3CCCC[C@@H]31)CN2CC1CCCCC1 [HDArgArgX[c-C6 H11 CH2]CH2 COSerDTicOicArgOH] |  | 8.17 | 
15 | N=C(N)NCCC[C@@H](N)C(=O)N[C@@H](CCCNC(=N)N)C(=O)N1CCC2(CC1)C(=O)N(CC(=O)N[C@@H](CO)C(=O)N1Cc3ccccc3C[C@@H]1C(=O)N1[C@H](C(=O)N[C@@H](CCCNC(=N)N)C(=O)O)C[C@@H]3CCCC[C@@H]31)CN2C1CCCCC1 [HDArgArgX[c-C6 H11]CH2 COSerDTicOicArgOH] |  | 9.14 | 
